Measured values taken from the supplement of paper PMC10126150.
Sequences with one replicate were seen in a single cluster, so their values are uncertain.

System: ATP
Test: switch fluorescence ratio, 500 uM ATP over buffer (Cy3 cluster intensity, sum of 5 cycles each) (fold (ratio)); higher = stronger signal-on switching upon ATP binding; sequences stand for … in TCGTCGGCAGCGTCAGATGTGTATAAGAGACAGTTTTTTTTTTTTTTTTTTTTTTTTT…TC
Settings: aptamer strand: ATP DNA aptamer (quencher-CACCTGGGGGAGTATTGCGGAGGAAGG + anchor), 100 nM annealed; ATP concentration: 500 uM; one replicate
Procedure, shortened: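 Imaging in selection buffer was followed by imaging after 15 min with 500 uM ATP at 22 °C, for Cy3-labelled switching-strand clusters annealed to 100 nM quencher-labelled ATP aptamer on a modified Illumina MiSeq flow-cell. Five of these buffer/ATP cycles ran, separated by NaOH stripping and re-annealing. The fluorescence ratio per cluster is summed target-cycle over summed buffer-cycle Cy3 intensity, averaged per switch-domain sequence; clusters outside 100-1000 RFU were removed.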
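Also: ATP exposure 15 min at 22 °C before imaging.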

Sequence | switch fluorescence ratio
TTTCTATGAG | 0.958
TTTTAAGTAT | 0.989
GGCGGTTTCT | 0.986
TAGTTTAGTG | 1
CGGCCGTGGA | 1.01
TTTGCAGAGG | 1
TACGTTAGAC | 1.28
AGGTAGGCCC | 0.993
AGCACTAGGA | 1.05
GTTAAAGCGA | 1.02
AGCCATCTTG | 1.01
AAAGTTGGTG | 0.966
CCGGTTTTCC | 0.996
ACATGGGAAG | 1
TTGTGATCTG | 1.02
GCGTAGATGT | 1.01
ATTGATCAA | 0.989
GGAGGAGTTG | 0.939
GTTACCATGG | 0.951
TGGGCTTAAC | 0.964
GAAGGACGGT | 0.995
CTAGTCGGGG | 0.994
GACAAGATGT | 0.964

Sequence | switch fluorescence ratio
TAAATAGCGA | 0.994
TCACTGGATT | 1.02
GAGAACACAT | 1.04
AGACGGTGGC | 0.997
AAGTTTTCTA | 1.01
CACTTTACGT | 1.32
GCTCCATGGC | 1.1
TCCCTCCTTT | 1.02
GATTGATA | 0.989
TATACGTTCG | 1.04
CCACATAATC | 1.22
TTGCATTGGT | 1
CGCTCTCACA | 1.09
ACTTGTCCAA | 1
TTCGGCTCAC | 1.06
TTTTGCGGT | 0.982
AGAATACTTT | 1.03
TGAAGTGGGA | 0.97
CGGTCAAGCA | 0.979
ACGCGTTGAC | 0.987
GAGAGGGGTT | 1.05
GATTCAGAAA | 0.977
CGACCCTTGC | 1.33

Sequence | switch fluorescence ratio
TTCTTTGCTC | 1.05
TACTGAATCA | 0.991
GTTAACTCCG | 1.18
GCACGATCC | 1.08
TAATAACTCG | 1.03
GGGAGGCTGA | 1.04
CAGGCAAAGG | 1.01
TTTGACGAAA | 1.04
CATAGTGCAT | 0.999
TCTGTGTTGC | 1.07
ATAGCCTGAT | 1.02
GGAAGCCACA | 0.996
CTGTCTCATA | 1.01
AGGCGGGAGC | 0.962
CTTGAGGCGT | 0.977
CCATTGCAGC | 2.17
TGGGCGATTT | 1.29
CCTGCTTACT | 2.56
TGGTACAAAT | 0.995
CAGGGCCAGG | 1.19
GAAAGAGGCA | 0.982
TTTGCACATA | 1.07
TTACCGCCTA | 1.47

Sequence | switch fluorescence ratio
ATCACGGGAC | 1.31
ATCCCCCGTT | 1.07
TGAGCATTTT | 1.02
TCAGGGAACT | 0.985
CGGAGCTAAG | 2.29
TAAGGTTGCT | 0.991
TCTAATTGT | 1
GCTCGTCAC | 0.978
GATATCCAAG | 0.932
CAGCCCGAGT | 0.991
TGACGAAATA | 2.65
GTAAATAGAA | 1.01
GCTTTGCGGC | 1.02
ATTGGCTCTT | 0.951
TAGATTATTA | 1.06
GGCGTCCCCC | 1.08
CACTGTTTCA | 0.993
ATTGGTATCG | 0.99
GACCGATGGT | 0.995
GTATTTTCAA | 0.998
AGGCACTACT | 1.18
CCGTAAAGGG | 1.07
AGACACGTT | 1.05

Sequence | switch fluorescence ratio
CGAGACTTCA | 1.05
CGGCTACTTG | 1.11
CTTTATGGCA | 0.995
GTTAATAGTC | 1.1
GTGTTCCGTA | 1.06
GCCATTCAGG | 1.04
TCTTTCCCGC | 2.18
GAGCGGTGCT | 1.04
GAGAGGGGCG | 1.11
CACTATTATC | 0.978
AATTCAAGGG | 1.01
AATGTATTGG | 1.03
TATTTCAAGA | 1.03
TCTAATCCCA | 1.15
GTTCTTTTGC | 0.925
ACTTGGCTAC | 2.64
TCACGACTGA | 1.06
CTGACTAAGT | 1.07
AAATTCAGAA | 0.982
GTCCCAAACG | 1.05
CTTTGTTAGT | 1.01
GGGGAGCACG | 0.981
GGTTGAAGCT | 0.974

Sequence | switch fluorescence ratio
TAAGTCAATA | 1.07
GATCCCTGTT | 0.957
GGCGAATAAC | 1.09
GGTGATATAT | 0.961
GGAAGCTCTT | 0.994
CCTAAAGCT | 1.22
CAGGAAAGGC | 0.965
TCCTTGAGAC | 1.21
AGGATGGGAT | 1.01
AAGAAATAGG | 0.987
GCAGAACGAG | 1.14
TACCGGACTT | 1.15
TCCCGTGATT | 0.98
ACGACAGCCC | 1.34
GGATTGAAC | 0.997
CAATGATGTT | 1.03
TTGTGGACAC | 0.959
AAGGTCATTC | 0.984
CGGAATTAGG | 1.04
TGCTTGAAGT | 1.02
TTACAAGCGG | 1.02
GCCATAACTC | 1.06
GCGCCAATTG | 1.05

Sequence | switch fluorescence ratio
TTTATAAGCT | 1.06
CCGTTGCCCA | 1.09
CATACGGAGA | 1.07
GCTGTCAATG | 0.99
GGTGTAACGG | 0.949
CCAACATAGG | 1.02
TCGATGATTG | 0.991
AGTATGCTTG | 1.1
ACTTTCACGT | 1.21
GAGATATAC | 1.14
ATGAGTATAG | 0.992
TAGACGGATC | 0.941
AAAAATCTTT | 0.997
ATATGCCGTG | 0.995
TGCCTCAAAC | 1.07
AAAAGACTGT | 1
CAGCCAGATA | 0.96
CCTGACCGGT | 1.02
GAGATTGTT | 0.999
